# The other results are listed elsewhere or left out.
# B1: LgFlo1 (Saccharomyces pastorianus), B3IUA8 (protein)
# chain: SGSTQACLPVGSRKNGMNVNFYKYSLQDSTTYSDPQYMAYKYSDTKKLGSVSGQTHLSIYYGPNTAFWNTASWSSDLFGFYTTPTNVTVEMTGYFLPPQTGSYTFKFATVDDSAILSVGGSIAFECCAQEQPPITSTDFTINGIKPWDAATPTDIKGSTYMYAGYYYPIKIVYSNAKALARLPVSVVLPDGTEVNDDFEGYVYSFDDDLSQSNCTIPDPSKHTTS
# Experiments:
# Assay in all cases: glycan array binding signal (z-score within array); higher = stronger binding
# Settings in all cases: glycan notation: IUPAC condensed, linker removed
# [1] = biological target: Fuc(a1-2)Gal(b1-4)GlcNAc(b1-3)Gal(b1-4)GlcNAc(b1-2)Man(a1-3)[Fuc(a1-2)Gal(b1-4)GlcNAc(b1-3)Gal(b1-4)GlcNAc(b1-2)Man(a1-6)]Man(b1-4)GlcNAc(b1-4)GlcNAc
# Summary of the method: (§1)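 The Consortium for Functional Glycomics database supplied 3228 glycan arrays, of which those lacking an available protein sequence were dropped. The binding signal, a within-array Z-score, was averaged across arrays of the same protein sequence and across linkers. Negative scores can be read as non-binding.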
# [2] = biological target: Fuc(a1-2)Gal(b1-4)GlcNAc(b1-3)Gal(b1-4)GlcNAc(b1-3)Gal(b1-4)GlcNAc
# Summary of the method: as §1
# [3] = biological target: Fuc(a1-2)Gal(b1-4)GlcNAc(b1-3)GalNAc
# Summary of the method: as §1
# [4] = biological target: Fuc(a1-2)Gal(b1-4)GlcNAc(b1-3)[Fuc(a1-2)Gal(b1-4)GlcNAc(b1-6)]GalNAc
# Summary of the method: as §1
# [5] = biological target: Fuc(a1-2)Gal(b1-4)GlcNAc(b1-3)[Fuc(a1-3)[Gal(b1-4)]GlcNAc(b1-6)]Gal(b1-4)Glc
# Summary of the method: as §1
# [6] = biological target: Fuc(a1-2)Gal(b1-4)GlcNAc(b1-6)GalNAc
# Summary of the method: as §1
# [7] = biological target: Fuc(a1-2)Gal(b1-4)GlcNAc6S
# Summary of the method: as §1
# [8] = biological target: Fuc(a1-2)Gal(b1-4)[Fuc(a1-3)]GlcNAc
# Summary of the method: as §1
# [9] = biological target: Fuc(a1-2)Gal(b1-4)[Fuc(a1-3)]GlcNAc(b1-2)Man(a1-3)[Fuc(a1-2)Gal(b1-4)[Fuc(a1-3)]GlcNAc(b1-2)Man(a1-6)]Man(b1-4)GlcNAc(b1-4)[Fuc(a1-6)]GlcNAc
# Summary of the method: as §1
# [10] = biological target: Fuc(a1-2)Gal(b1-4)[Fuc(a1-3)]GlcNAc(b1-2)[Fuc(a1-2)Gal(b1-4)[Fuc(a1-3)]GlcNAc(b1-4)]Man(a1-3)[Fuc(a1-2)Gal(b1-4)[Fuc(a1-3)]GlcNAc(b1-2)Man(a1-6)]Man(b1-4)GlcNAc(b1-4)GlcNAc
# Summary of the method: as §1
# [11] = biological target: Fuc(a1-2)Gal(b1-4)[Fuc(a1-3)]GlcNAc(b1-3)Gal(b1-4)[Fuc(a1-3)]GlcNAc
# Summary of the method: as §1
# [12] = biological target: Fuc(a1-2)Gal(b1-4)[Fuc(a1-3)]GlcNAc(b1-3)Gal(b1-4)[Fuc(a1-3)]GlcNAc(b1-3)Gal(b1-4)[Fuc(a1-3)]GlcNAc
# Summary of the method: as §1
# [13] = biological target: Fuc(a1-2)Gal(b1-4)[Fuc(a1-3)]GlcNAc(b1-3)GalNAc
# Summary of the method: as §1
# [14] = biological target: Fuc(a1-2)Gal(b1-4)[Fuc(a1-3)]GlcNAc(b1-3)[Neu5Ac(a2-6)Gal(b1-4)GlcNAc(b1-6)]Gal(b1-4)Glc
# Summary of the method: as §1
# [15] = biological target: Fuc(a1-2)Gal3S(b1-4)GlcNAc
# Summary of the method: as §1
# [16] = biological target: Fuc(a1-2)Gal6S(b1-3)GlcNAc
# Summary of the method: as §1
# [17] = biological target: Fuc(a1-2)Gal6S(b1-3)GlcNAc6S
# Summary of the method: as §1
# [18] = biological target: Fuc(a1-2)Gal6S(b1-4)Glc
# Summary of the method: as §1
# [19] = biological target: Fuc(a1-2)Gal6S(b1-4)Glc6S
# Summary of the method: as §1
# [20] = biological target: Fuc(a1-2)[Gal(a1-3)]Gal
# Summary of the method: as §1
# [21] = biological target: Fuc(a1-2)[Gal(a1-3)]Gal(b1-3)GalNAc
# Summary of the method: as §1
# [22] = biological target: Fuc(a1-2)[Gal(a1-3)]Gal(b1-3)GalNAc(b1-3)Gal(a1-4)Gal(b1-4)Glc
# Summary of the method: as §1
# [23] = biological target: Fuc(a1-2)[Gal(a1-3)]Gal(b1-3)GlcNAc
# Summary of the method: as §1
# [24] = biological target: Fuc(a1-2)[Gal(a1-3)]Gal(b1-3)GlcNAc(b1-2)Man(a1-3)[Fuc(a1-2)[Gal(a1-3)]Gal(b1-3)GlcNAc(b1-2)Man(a1-6)]Man(b1-4)GlcNAc(b1-4)GlcNAc
# Summary of the method: as §1
# [25] = biological target: Fuc(a1-2)[Gal(a1-3)]Gal(b1-3)GlcNAc(b1-2)Man(a1-3)[Fuc(a1-2)[Gal(a1-3)]Gal(b1-3)GlcNAc(b1-2)Man(a1-6)]Man(b1-4)GlcNAc(b1-4)[Fuc(a1-6)]GlcNAc
# Summary of the method: as §1
# [26] = biological target: Fuc(a1-2)[Gal(a1-3)]Gal(b1-3)GlcNAc(b1-3)GalNAc
# Summary of the method: as §1
# [27] = biological target: Fuc(a1-2)[Gal(a1-3)]Gal(b1-3)GlcNAc(b1-6)GalNAc
# Summary of the method: as §1
# [28] = biological target: Fuc(a1-2)[Gal(a1-3)]Gal(b1-4)Glc
# Summary of the method: as §1
# [29] = biological target: Fuc(a1-2)[Gal(a1-3)]Gal(b1-4)GlcNAc
# Summary of the method: as §1
# [30] = biological target: Fuc(a1-2)[Gal(a1-3)]Gal(b1-4)GlcNAc(b1-2)Man
# Summary of the method: as §1
# [31] = biological target: Fuc(a1-2)[Gal(a1-3)]Gal(b1-4)GlcNAc(b1-2)Man(a1-3)[Fuc(a1-2)[Gal(a1-3)]Gal(b1-4)GlcNAc(b1-2)Man(a1-6)]Man(b1-4)GlcNAc(b1-4)GlcNAc
# Summary of the method: as §1
# [32] = biological target: Fuc(a1-2)[Gal(a1-3)]Gal(b1-4)GlcNAc(b1-2)Man(a1-3)[Fuc(a1-2)[Gal(a1-3)]Gal(b1-4)GlcNAc(b1-2)Man(a1-6)]Man(b1-4)GlcNAc(b1-4)[Fuc(a1-6)]GlcNAc
# Summary of the method: as §1
# [33] = biological target: Fuc(a1-2)[Gal(a1-3)]Gal(b1-4)GlcNAc(b1-3)GalNAc
# Summary of the method: as §1
# [34] = biological target: Fuc(a1-2)[Gal(a1-3)]Gal(b1-4)GlcNAc(b1-3)[Fuc(a1-2)[Gal(a1-3)]Gal(b1-4)GlcNAc(b1-6)]GalNAc
# Summary of the method: as §1
# [35] = biological target: Fuc(a1-2)[Gal(a1-3)]Gal(b1-4)GlcNAc(b1-6)GalNAc
# Summary of the method: as §1
# [36] = biological target: Fuc(a1-2)[Gal(a1-3)]Gal(b1-4)[Fuc(a1-3)]Glc
# Summary of the method: as §1
# [37] = biological target: Fuc(a1-2)[Gal(a1-3)]Gal(b1-4)[Fuc(a1-3)]GlcNAc
# Summary of the method: as §1
# [38] = biological target: Fuc(a1-2)[Gal(a1-3)]Gal(b1-4)[Fuc(a1-3)]GlcNAc(b1-3)GalNAc
# Summary of the method: as §1
# [39] = biological target: Fuc(a1-2)[Gal(a1-4)]Gal(b1-4)GlcNAc
# Summary of the method: as §1
# [40] = biological target: Fuc(a1-2)[GalNAc(a1-3)]Gal
# Summary of the method: as §1
# [41] = biological target: Fuc(a1-2)[GalNAc(a1-3)]Gal(b1-3)GalNAc(a1-3)[Fuc(a1-2)]Gal(b1-4)GlcNAc
# Summary of the method: as §1
# [42] = biological target: Fuc(a1-2)[GalNAc(a1-3)]Gal(b1-3)GalNAc(b1-3)Gal(a1-4)Gal(b1-4)Glc
# Summary of the method: as §1
# [43] = biological target: Fuc(a1-2)[GalNAc(a1-3)]Gal(b1-3)GlcNAc
# Summary of the method: as §1
# [44] = biological target: Fuc(a1-2)[GalNAc(a1-3)]Gal(b1-3)GlcNAc(b1-2)Man(a1-3)[Fuc(a1-2)[GalNAc(a1-3)]Gal(b1-3)GlcNAc(b1-2)Man(a1-6)]Man(b1-4)GlcNAc(b1-4)GlcNAc
# Summary of the method: as §1
# [45] = biological target: Fuc(a1-2)[GalNAc(a1-3)]Gal(b1-3)GlcNAc(b1-2)Man(a1-3)[Fuc(a1-2)[GalNAc(a1-3)]Gal(b1-3)GlcNAc(b1-2)Man(a1-6)]Man(b1-4)GlcNAc(b1-4)[Fuc(a1-6)]GlcNAc
# Summary of the method: as §1
binder,measurement,setting,value
B1,glycan array binding signal (z-score),[1],-0.274
same,glycan array binding signal (z-score),[2],-0.091
same,glycan array binding signal (z-score),[3],-0.305
same,glycan array binding signal (z-score),[4],-0.168
same,glycan array binding signal (z-score),[5],0.07
same,glycan array binding signal (z-score),[6],-0.239
same,glycan array binding signal (z-score),[7],0.383
same,glycan array binding signal (z-score),[8],-0.276
same,glycan array binding signal (z-score),[9],1.1
same,glycan array binding signal (z-score),[10],0.067
same,glycan array binding signal (z-score),[11],-0.242
same,glycan array binding signal (z-score),[12],-0.263
same,glycan array binding signal (z-score),[13],0.006
same,glycan array binding signal (z-score),[14],-0.325
same,glycan array binding signal (z-score),[15],-0.283
same,glycan array binding signal (z-score),[16],-0.374
same,glycan array binding signal (z-score),[17],1.44
same,glycan array binding signal (z-score),[18],-0.238
same,glycan array binding signal (z-score),[19],-0.317
same,glycan array binding signal (z-score),[20],-0.403
same,glycan array binding signal (z-score),[21],-0.089
same,glycan array binding signal (z-score),[22],-0.417
same,glycan array binding signal (z-score),[23],0.172
same,glycan array binding signal (z-score),[24],-0.269
same,glycan array binding signal (z-score),[25],-0.015
same,glycan array binding signal (z-score),[26],11.9
same,glycan array binding signal (z-score),[27],-0.32
same,glycan array binding signal (z-score),[28],-0.115
same,glycan array binding signal (z-score),[29],-0.213
same,glycan array binding signal (z-score),[30],-0.175
same,glycan array binding signal (z-score),[31],0.01
same,glycan array binding signal (z-score),[32],11.9
same,glycan array binding signal (z-score),[33],-0.074
same,glycan array binding signal (z-score),[34],2.44
same,glycan array binding signal (z-score),[35],-0.087
same,glycan array binding signal (z-score),[36],-0.326
same,glycan array binding signal (z-score),[37],-0.173
same,glycan array binding signal (z-score),[38],-0.045
same,glycan array binding signal (z-score),[39],-0.306
same,glycan array binding signal (z-score),[40],-0.199
same,glycan array binding signal (z-score),[41],0.035
same,glycan array binding signal (z-score),[42],-0.256
same,glycan array binding signal (z-score),[43],0.577
same,glycan array binding signal (z-score),[44],-0.322
same,glycan array binding signal (z-score),[45],0.861

# Source: the supplement of paper PMC8728848
